Test results from PubChem BioAssay (NCATS).
Values joined by “and” are separate entries in the source; they are usually repeats but may differ in a detail not shown here. Identical values can stand only once. The inconclusive results got no clear call from the source; some entries with a clear call stand among them for comparison. Potencies beside an inconclusive call are fits to weak or partial responses and may not hold up. A note “side channel” means that the fit belongs to a control or component signal, not to the main read-out. Active and inactive are the calls of the source. Calls follow the shape of the dose curve; as a rule, active = well fitted inhibition curve with a large enough effect in the signal ratio, with a control signal flat (not every such curve was filed as active); inconclusive = small, poorly fitted or top-dose-only effect, or effect the other way, or a change in a side signal; inactive = flat fitted curve, though single readings scatter; the % refers to the signal ratio.

assay: qHTS Assay for Identification of Small Molecule Antagonists for NFkB Signaling Pathway (AID 895); details: NFkB beta-lactamase reporter cells, FRET ratio 460/530, stimulated with 10 pM TNF alpha; activity change, negative = inhibition: at 38.3 µM (top of the series)
Procedure: NIH Molecular Libraries Screening Centers Network [MLSCN]
NIH Chemical Genomics Center [NCGC]
The TNF alpha/NFkB signaling pathway was assayed in NFkB-bla cells (Invitrogen), a ME-180 cervical carcinoma line containing a stably integrated beta-lactamase reporter gene controlled by a NFkB response element. […] The assay was screened at the EC50 of TNF alpha activation to identify inhibitors of TNF alpha/NFkB signaling.
NCGC Assay Protocol Summary:
Cells were trypsinized, washed in assay medium (AM, OPTI MEM with 0.5% fetal bovine serum, 0.1 mM nonessential amino acids, 1 mM sodium pyruvate, 10mM HEPES pH 7.3, 100U/ml penicillin, and 100 ug/ml streptomycin) and plated at 1000 cells/5 uL/well into black clear-bottom 1536 well plates. After an overnight incubation at 37 C and 5% CO2, 23 nL of compound were delivered by a pin tool, 1 uL of TNF alpha (10 pM final concentration in AM) was added and plates were incubated at 37 C for 5 hrs. One uL of LiveBLAzerTM detector mix (Invitrogen) was added, the plates incubated at room temperature for 2 hrs, and fluorescence intensity at 460 and 530 nm emission was measured at 405 nm excitation by an Envision (Perkin Elmer).
% is scaled to controls: 0 for no effect and ±100 for the full control effect; potency is read from the fitted curve at half-maximal effect; tags tell the direction and shape of the fitted curve or compound fluorescence and quenching.

Compound | activity change, negative = inhibition | Potency
C[C@@H]1C(=O)NC2=Nc3cccc(Cl)c3CN21 | inconclusive: -7.92% | –
NC(=O)CC[C@@H](N)C(=O)O | inconclusive: -32.4% | –
Cc1ccc(=O)n(-c2ccccc2)c1 | inactive: -23.6% | –
CCCOc1ccccc1-c1nc2n[nH]nc2c(=O)[nH]1 | inactive: -21.2% | –
CCN(CC)CC(=O)Nc1c(C)cccc1C | inactive: -16.5% | –
Nc1cc(=O)[nH]c(N)n1 | inconclusive: -4.78% | –
CC(=O)c1ccc(S(=O)(=O)NC(=O)NC2CCCCC2)cc1 | inactive: 4.24% | –
CCNC(=O)N1CCN(CCCC(c2ccc(F)cc2)c2ccc(F)cc2)CC1 | inconclusive: -4.16% | –
CCCNC(=O)NS(=O)(=O)c1ccc(Cl)cc1 | – | inconclusive: 0.447 µM [activator, full curve]
CN1CCN(CCCN2c3ccccc3Sc3ccc(C(F)(F)F)cc32)CC1 | – | inconclusive: 11.2 µM [cytotoxic, partial curve]
CCOC(=O)N1CCC(=C2c3ccc(Cl)cc3CCc3cccnc32)CC1 | inactive: -15.3% | –
O=C(O)CN(CCN(CC(=O)O)CC(=O)O)CCN(CC(=O)O)CC(=O)O | inconclusive: -2.39% | –
Brc1ccc([C@H]2CN3CCSC3=N2)cc1 | – | inconclusive: 12.6 µM [cytotoxic, side channel, single point]
CCCCNc1ccc(C(=O)OCCN(C)C)cc1 | inconclusive: -6.61% | –
N=c1nc(N2CCCCC2)cc(N)n1O | inconclusive: -11.9% | –
CN(C)CC[C@H](c1ccc(Cl)cc1)c1ccccn1 | – | inconclusive: 12.6 nM [inhibitor, full curve, poor fit] and inconclusive: 1.58 µM [inhibitor, full curve, poor fit]
CC(C)N(CCC(=O)c1ccc2ccccc2c1)Cc1ccccc1 | – | inconclusive: 2.82 µM [cytotoxic, side channel, partial curve]
C[C@]12CCC(=O)C=C1CC[C@@H]1[C@@H]2CC[C@@]2(C)[C@H]1CC[C@]2(O)C(=O)CO | inconclusive: -34.2% | –
CN1CCC[C@@H]1CCO[C@](C)(c1ccccc1)c1ccc(Cl)cc1 | inconclusive: -36.9% | –
CN1C(C)(C)CCCC1(C)C | – | inconclusive: 0.0282 µM [inhibitor, full curve, poor fit]
CCCCC1C(=O)N(c2ccccc2)N(c2ccccc2)C1=O | inconclusive: -15.7% | –
